In PubChem BioAssay (Tox21) one finds Potency data, which are given here for five compounds.

Experiment [1] can be described thus: qHTS assay for small molecules that induce genotoxicity in human embryonic kidney cells expressing luciferase-tagged ATAD5 - cell viability (AID 651634; calls by dose curve; further: nearly all actives have a fitted effect of over 25% in size). The method in brief:
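Viability read: CellTiter-Fluor fluorescence, 30 min at 37C. Cells: HEK293T, luciferase-tagged ATAD5. Exposure: 15.5 hr, 37C, 5% CO2, compound or DMSO vehicle.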

For experiment [2], the target named is Androgen receptor (Homo sapiens) (UniProt P10275). Description: qHTS assay to identify small molecule agonists of the androgen receptor (AR) signaling pathway using the MDA cell line (AID 743040; further: nearly all actives have a fitted effect of over 20% in size). Background: qHTS replaces the single test concentration by a dilution series.
Chain of UniProt P10275 (P10275 whole entry, looked up): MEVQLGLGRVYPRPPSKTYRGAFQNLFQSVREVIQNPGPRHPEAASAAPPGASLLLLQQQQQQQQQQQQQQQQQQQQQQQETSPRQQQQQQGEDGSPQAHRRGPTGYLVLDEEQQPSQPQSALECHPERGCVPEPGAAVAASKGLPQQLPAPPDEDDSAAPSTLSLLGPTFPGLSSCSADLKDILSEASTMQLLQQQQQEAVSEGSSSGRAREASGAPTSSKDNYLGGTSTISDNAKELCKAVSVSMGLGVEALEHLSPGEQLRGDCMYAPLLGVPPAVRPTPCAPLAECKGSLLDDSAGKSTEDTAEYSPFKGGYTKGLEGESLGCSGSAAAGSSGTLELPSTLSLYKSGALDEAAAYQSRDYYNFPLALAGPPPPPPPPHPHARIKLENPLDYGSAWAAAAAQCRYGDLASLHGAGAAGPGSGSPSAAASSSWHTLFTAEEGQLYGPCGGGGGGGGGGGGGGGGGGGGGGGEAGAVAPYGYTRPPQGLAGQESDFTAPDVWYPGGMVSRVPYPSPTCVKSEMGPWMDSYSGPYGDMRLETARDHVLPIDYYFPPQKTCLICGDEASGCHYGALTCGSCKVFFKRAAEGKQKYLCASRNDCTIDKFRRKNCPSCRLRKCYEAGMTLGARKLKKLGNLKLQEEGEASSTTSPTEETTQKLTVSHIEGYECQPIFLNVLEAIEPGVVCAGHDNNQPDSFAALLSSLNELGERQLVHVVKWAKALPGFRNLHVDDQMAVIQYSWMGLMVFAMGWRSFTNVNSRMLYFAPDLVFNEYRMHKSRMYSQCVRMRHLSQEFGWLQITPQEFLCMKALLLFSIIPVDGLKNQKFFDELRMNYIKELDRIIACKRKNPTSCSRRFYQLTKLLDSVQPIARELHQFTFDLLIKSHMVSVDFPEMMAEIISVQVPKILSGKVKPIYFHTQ
Experiment [3] can be described thus: qHTS assay to identify small molecule antagonists of the androgen receptor (AR) signaling pathway using the MDA cell line - cell viability counter screen (AID 743041; further: nearly all actives have a fitted effect of over 45% in size). The gist of the method: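 Viability counter screen run alongside the AR antagonist reporter: cells seeded 5 h before compound, R1881 added, 16 h incubation at 37C without CO2, fluorescent CellTiter-Fluor signal quantified.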

The nature of experiment [4]: qHTS assay to identify small molecule antagonists of the thyroid receptor (TR) signaling pathway (AID 743065). Further: nearly all actives have a fitted effect of over 55% in size. The gist of the method:
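GH3.TRE-Luc rat pituitary cells carrying two TR response elements driving luciferase were plated for 4 h, given compound plus 1 nM T3 (final), and incubated 23.5 h at 37 C. ONE-Glo luminescence measured reporter inhibition; CellTiter-Fluor fluorescence tracked cytotoxicity.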

Results filed as inconclusive are left out. Unless noted, the call rests on the fitted dose curve; in most records, active means well fitted curve in the direction sought with a large enough effect in the repeat runs; inconclusive means weak or mixed curves; inactive means no such curve, though single readings can be large; an effect the other way counts as inactive or inconclusive. More than one record can exist for a structure, and the calls need not agree. For part of its entries the source gives two or more results. The other results are left out here. The source may hold further records. Values that stand side by side repeat one measurement in other runs, samples, wells, individuals or studies. Records carry a tag for their origin. A, B and so on number the origins entry by entry.
Potency means the concentration at half of the fitted maximal effect.

Take `C=C1C(CCl)(CCl)C2(Cl)C(Cl)C(Cl)C1(Cl)C2(Cl)Cl` (stereo not given): in experiment [1], the Potency result is “active: 29.8 µM [sample A] and inactive [sample B]”. As to `C[N+](C)(C)CCOP(=O)(O)OP(=O)([O-])OC[C@H]1O[C@@H](n2ccc(N)nc2=O)[C@H](O)[C@@H]1O`, in experiment [2], the Potency entry is “inactive [sample A] and active: 29.8 µM [sample B]”. Take `CON=C1C[C@]2(C[C@@H]3C[C@@H](C/C=C(\C)C[C@@H](C)/C=C/C=C4\CO[C@@H]5[C@H](O)C(C)=C[C@@H](C(=O)O3)[C@]45O)O2)O[C@H](/C(C)=C/C(C)C)[C@H]1C`: the Potency result in experiment [2] is “active: 596 nM [sample A] and inactive [sample B]”. Take `CC[C@@]1([C@@H]2O[C@@H]([C@H]3O[C@@](O)(CO)[C@H](C)C[C@@H]3C)C[C@@H]2C)CC[C@H]([C@]2(C)CC[C@]3(C[C@H](O)[C@@H](C)[C@@H]([C@@H](C)[C@@H](OC)[C@H](C)C(=O)O)O3)O2)O1` (stereo in doubt): the Potency result in experiment [3] is “active: 3.76 µM [sample A] and inactive [sample B]”. For `CC(C)(C)c1ccc2c(S(=O)(=O)O)c(C(C)(C)C)ccc2c1`, the Potency result in experiment [4] was “inactive [sample A] and active: 61.1 µM [sample B]”.
